Test results from patent US4049497A (priority 1974, dated 1977).

Test: Stability of activity in 50% aqueous ethanol, room temperature, 16 hours; storage and methanol stability
Settings: for activity remaining / conversion (thin-layer chromatographic analysis): 50% aqueous ethanol of pH 6.5 or pH 8.0, room temperature; for conversion in anhydrous methanol: room temperature
Excerpt: This invention embraces neothramycin A and neothramycin B substances, either alone or in a mixture of them, which may be present in a dilute solution, as a crude concentrate, as a crude solid, as a purified solid, as the free acid form and in the form of a salt thereof with a metal or an organic amine. […] From the results of elemental analysis and the determination of molecular weight, it is probable that neothramycin A has an empirical formula C13 H14 N2 O4 .1/2 H2 O. This formula has been confirmed by high-resolution mass-spectrometry (Found: m/e 262.0934, Calcd. mol. wt. for C13 H14 N2 O4 262.0952). […] Neothramycin B has the empirical formula: C13 H14 N2 O4 .1/2 H2 O. This formula has been confirmed by high-resolution mass-spectrometry (Found: m/e 262,0939, Calcd. mol. wt. for C13 H14 N2 O4, 262.0952).
But, neothramycin A and B are unstable in 50% aqueous ethanol of pH 2.5 and the activities are reduced to 25% and 22%, respectively, at room temperature for 16 hours. […] Methylneothramycin A is crystallized from a mixture of acetone and benzene, colorless microcrystals, m.p. 137°-140° C. (dec.); [α]D^26 +640° (C, 0.24, dioxane), MS, m/e 276.1089 (Calcd. mol. wt. for C14 H16 N2 O4, 276.1108). Methylneothramycin B is obtained as a colorless powder, m.p. 61°-69° C. (dec.); [α]D^26 +778° (C, 0.22, dioxane), MS, m/e 276.1071. Mild hydrolysis of methylneothramycin A or B in 0.01N HCl-dioxane (1:1 in volume) at room temperature for one hour followed by column chromatography on silica gel gives neothramycins A and B in a good yield.

SMILES | activity remaining | conversion (thin-layer chromatographic analysis) | conversion in anhydrous methanol
COc1cc2c(cc1O)N=C[C@@H]1CC[C@H](O)N1C2=O [neothramycin A] | 80-90% | equilibrium conversion of neothramycin A to B or B to A | easily converted to a mixture of methyl-neothramycins A
COc1cc2c(cc1O)N=C[C@@H]1CC[C@@H](O)N1C2=O [neothramycin B] | 70-80% | equilibrium conversion of neothramycin A to B or B to A | easily converted to a mixture of methyl-neothramycins A
